Data as given in paper PMC4242493.
Some of the results follow. The list includes weakly bound sequences.

These sequences were tested against MaxL homodimer (UniProt P61244) (assay: universal protein-binding microarray (PBM)). Details: PBS-based mixture, 10 nM His-tagged protein dimer, 2% milk, 200 ng/uL BSA, 50 ng/uL salmon testes DNA, 0.02% TX-100; detection with Alexa 488 anti-His …; high values mean tight binding; most listed sequences are background and not binding sites; double strand, one strand shown.
Sequence of UniProt P61244 (P61244 whole entry): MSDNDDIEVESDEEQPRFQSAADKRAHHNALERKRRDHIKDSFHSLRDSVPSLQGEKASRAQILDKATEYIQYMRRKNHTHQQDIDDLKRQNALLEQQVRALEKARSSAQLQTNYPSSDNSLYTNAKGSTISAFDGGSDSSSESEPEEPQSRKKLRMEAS
GGGACCTA showed a binding signal (normalized occupancy) of 0.0727.
For ATAAGTCA, the binding signal (normalized occupancy) was 0.0772.
AACGGTTA gave a binding signal (normalized occupancy) of 0.0738.
Sequence GAGAGTTA has a binding signal (normalized occupancy) of 0.0759.
TAGTCAGA was tested, and the binding signal (normalized occupancy) was 0.0682.
Work on AGATGGCG yielded a binding signal (normalized occupancy) of 0.0737.
With CTCTAGAA the binding signal (normalized occupancy) was 0.0758.
AGCGCATG was tested, and the binding signal (normalized occupancy) was 0.109.
Work on CGGACCGC yielded a binding signal (normalized occupancy) of 0.0682.
AGCCAGCG gave a binding signal (normalized occupancy) of 0.0718.
With CCCCCTTA the binding signal (normalized occupancy) was 0.0818.
AACAGAGC was tested, and the binding signal (normalized occupancy) was 0.0683.
CCAGAATC gave a binding signal (normalized occupancy) of 0.0733.
In the case of CAGGGTCC, the binding signal (normalized occupancy) is reported as 0.0727.
In the case of CCTTTCCG, the binding signal (normalized occupancy) is reported as 0.0638.
AAAGTCAC showed a binding signal (normalized occupancy) of 0.0795.
CTAGGCAC showed a binding signal (normalized occupancy) of 0.0749.
ATCTGCGG gave a binding signal (normalized occupancy) of 0.0685.
GTCGGGCA showed a binding signal (normalized occupancy) of 0.0729.
In the case of CATGCTGG, the binding signal (normalized occupancy) is reported as 0.125.
ATTAATTA was tested, and the binding signal (normalized occupancy) was 0.0701.
CCATTTCC showed a binding signal (normalized occupancy) of 0.0778.
Work on CGACGTTA yielded a binding signal (normalized occupancy) of 0.0745.
Work on AAAGGGAG yielded a binding signal (normalized occupancy) of 0.0725.
With CACCTAGC the binding signal (normalized occupancy) was 0.0763.
AAAATTAC showed a binding signal (normalized occupancy) of 0.0693.
ATCCCTCG showed a binding signal (normalized occupancy) of 0.0753.
Work on CATTAGCG yielded a binding signal (normalized occupancy) of 0.0779.
For AAGTTTCC, the binding signal (normalized occupancy) was 0.0709.
Work on GAATTGGA yielded a binding signal (normalized occupancy) of 0.0743.
Sequence GCGCATCC has a binding signal (normalized occupancy) of 0.0737.
GCGTATCA showed a binding signal (normalized occupancy) of 0.0767.
GACAAGGC showed a binding signal (normalized occupancy) of 0.0758.
In the case of ATATCAGG, the binding signal (normalized occupancy) is reported as 0.0861.
For CCTTCCTC, the binding signal (normalized occupancy) was 0.0734.
With CCGGCCGC the binding signal (normalized occupancy) was 0.0663.
Work on AAGGATCA yielded a binding signal (normalized occupancy) of 0.0765.
Work on GGTGATCA yielded a binding signal (normalized occupancy) of 0.0835.
AGGTACTC gave a binding signal (normalized occupancy) of 0.0741.
With AGTGTAGA the binding signal (normalized occupancy) was 0.0784.
Work on ACGTCGAT yielded a binding signal (normalized occupancy) of 0.0796.
Work on AATGACCT yielded a binding signal (normalized occupancy) of 0.0776.
ACGCTAAC gave a binding signal (normalized occupancy) of 0.0831.
GAGTTGGC showed a binding signal (normalized occupancy) of 0.0685.
CCGAGTTA was tested, and the binding signal (normalized occupancy) was 0.0739.
CAAAAGTA showed a binding signal (normalized occupancy) of 0.0739.
For AATGCTTC, the binding signal (normalized occupancy) was 0.0816.
CCCATCAC showed a binding signal (normalized occupancy) of 0.0843.
ACTCACAA showed a binding signal (normalized occupancy) of 0.0731.
AGTTTGAG gave a binding signal (normalized occupancy) of 0.0681.
For ATATCACA, the binding signal (normalized occupancy) was 0.0891.
Work on ACAGGTCT yielded a binding signal (normalized occupancy) of 0.0704.
Sequence CGCGGTGC has a binding signal (normalized occupancy) of 0.0729.
GAGAAATA was tested, and the binding signal (normalized occupancy) was 0.0824.
For AAAAACGA, the binding signal (normalized occupancy) was 0.0768.
With AAATCGGA the binding signal (normalized occupancy) was 0.0675.
GATAGATA gave a binding signal (normalized occupancy) of 0.0808.
Work on CGTCGATA yielded a binding signal (normalized occupancy) of 0.0757.
For ATGTTCCA, the binding signal (normalized occupancy) was 0.0808.
In the case of CTGGTTTA, the binding signal (normalized occupancy) is reported as 0.0796.
GGGCTCCA gave a binding signal (normalized occupancy) of 0.0685.
Work on GGTACGTA yielded a binding signal (normalized occupancy) of 0.0841.
CTGACCAA was tested, and the binding signal (normalized occupancy) was 0.0694.
Work on CTGCGCTA yielded a binding signal (normalized occupancy) of 0.0673.
CTATGAAG gave a binding signal (normalized occupancy) of 0.0742.
For AACAATCC, the binding signal (normalized occupancy) was 0.0768.
AGTTCACA gave a binding signal (normalized occupancy) of 0.08.
Work on CGTAGAGC yielded a binding signal (normalized occupancy) of 0.0769.
Sequence AGTTTGCG has a binding signal (normalized occupancy) of 0.0699.
In the case of CGGGGCGC, the binding signal (normalized occupancy) is reported as 0.0675.
Sequence CATATGCG has a binding signal (normalized occupancy) of 0.105.
AAGGGCTC showed a binding signal (normalized occupancy) of 0.0681.
In the case of CAGAAGAC, the binding signal (normalized occupancy) is reported as 0.0718.
In the case of GATACAGC, the binding signal (normalized occupancy) is reported as 0.0857.
In the case of ACCAACAA, the binding signal (normalized occupancy) is reported as 0.077.
Sequence TCGAGGCA has a binding signal (normalized occupancy) of 0.0756.
Work on AGCTAAAG yielded a binding signal (normalized occupancy) of 0.0685.
With TAGCTCAA the binding signal (normalized occupancy) was 0.0683.
Work on ACAGTTGC yielded a binding signal (normalized occupancy) of 0.0708.
Work on CGCCATCA yielded a binding signal (normalized occupancy) of 0.0782.
GCGCACCA gave a binding signal (normalized occupancy) of 0.0775.
Work on CAAGCGGC yielded a binding signal (normalized occupancy) of 0.0656.
In the case of AGTGGCTA, the binding signal (normalized occupancy) is reported as 0.0699.
CTTTCTAA showed a binding signal (normalized occupancy) of 0.0688.
In the case of AATCTTCC, the binding signal (normalized occupancy) is reported as 0.0748.
For AACCTTCC, the binding signal (normalized occupancy) was 0.079.
For TCGGAGAA, the binding signal (normalized occupancy) was 0.0725.
GCCTGTGA showed a binding signal (normalized occupancy) of 0.0761.
Sequence AATCACAT has a binding signal (normalized occupancy) of 0.0908.
TCACCTCA showed a binding signal (normalized occupancy) of 0.0824.
Sequence GTGGCAAA has a binding signal (normalized occupancy) of 0.0796.
In the case of CAAAGCCG, the binding signal (normalized occupancy) is reported as 0.0636.
Sequence GGTAGGAC has a binding signal (normalized occupancy) of 0.0714.
In the case of CGCAACCC, the binding signal (normalized occupancy) is reported as 0.0716.
In the case of ATATCAAA, the binding signal (normalized occupancy) is reported as 0.0825.
With CCAGGGGA the binding signal (normalized occupancy) was 0.0742.
In the case of AATAATCA, the binding signal (normalized occupancy) is reported as 0.0776.
TCTCACCA was tested, and the binding signal (normalized occupancy) was 0.0809.
With CTTACGAA the binding signal (normalized occupancy) was 0.0737.
With ATTCTTAC the binding signal (normalized occupancy) was 0.0779.
With GGGGACGA the binding signal (normalized occupancy) was 0.0762.
For CACAGATG, the binding signal (normalized occupancy) was 0.082.
For CATTCGTA, the binding signal (normalized occupancy) was 0.0782.
In the case of GTGCGGCA, the binding signal (normalized occupancy) is reported as 0.0826.
ACACGGAG showed a binding signal (normalized occupancy) of 0.0756.
Sequence ATGAACGC has a binding signal (normalized occupancy) of 0.0778.
Sequence AAGCAAGA has a binding signal (normalized occupancy) of 0.0758.
AATGAGTC was tested, and the binding signal (normalized occupancy) was 0.0814.
With AGCTCCTG the binding signal (normalized occupancy) was 0.0669.
AACCGCGA showed a binding signal (normalized occupancy) of 0.0724.
In the case of AACATGAC, the binding signal (normalized occupancy) is reported as 0.0831.
Sequence AGTATCGC has a binding signal (normalized occupancy) of 0.0728.
Sequence CTCTCCAA has a binding signal (normalized occupancy) of 0.0761.
With GATCGAAA the binding signal (normalized occupancy) was 0.0715.
CCCGCACA was tested, and the binding signal (normalized occupancy) was 0.085.
Sequence GCCATCCA has a binding signal (normalized occupancy) of 0.0781.
Work on CCGAGGTC yielded a binding signal (normalized occupancy) of 0.0666.
CTGCCTTA showed a binding signal (normalized occupancy) of 0.0723.
CCTGTACC was tested, and the binding signal (normalized occupancy) was 0.0769.
Work on ACGCCCCG yielded a binding signal (normalized occupancy) of 0.076.
Work on CGCCCCAG yielded a binding signal (normalized occupancy) of 0.0687.
ACGCTCAT gave a binding signal (normalized occupancy) of 0.0832.
For CCCTCAAA, the binding signal (normalized occupancy) was 0.0701.
With CTCGAAGA the binding signal (normalized occupancy) was 0.0656.
For GCTTCGAC, the binding signal (normalized occupancy) was 0.067.
For GCTGGTCA, the binding signal (normalized occupancy) was 0.0754.
For CCATTCTC, the binding signal (normalized occupancy) was 0.0771.
For CGATGATC, the binding signal (normalized occupancy) was 0.0726.
For AAAATCTC, the binding signal (normalized occupancy) was 0.0762.
Sequence CACGCCCA has a binding signal (normalized occupancy) of 0.0892.
CTCATACC showed a binding signal (normalized occupancy) of 0.0778.
For AGTAGCAG, the binding signal (normalized occupancy) was 0.0738.
AACAAGAC showed a binding signal (normalized occupancy) of 0.0749.
Work on GATCAAAA yielded a binding signal (normalized occupancy) of 0.0755.
In the case of AGCGGGGC, the binding signal (normalized occupancy) is reported as 0.068.
GAGCTCTA was tested, and the binding signal (normalized occupancy) was 0.069.
In the case of CAATAGAA, the binding signal (normalized occupancy) is reported as 0.0756.
GCTTGTTA gave a binding signal (normalized occupancy) of 0.0749.
Work on ACTTCTAT yielded a binding signal (normalized occupancy) of 0.0767.
With AGCCTTAC the binding signal (normalized occupancy) was 0.0711.
In the case of CGTGGTAA, the binding signal (normalized occupancy) is reported as 0.096.
AACCCCAT gave a binding signal (normalized occupancy) of 0.0804.
With ACGCGGGC the binding signal (normalized occupancy) was 0.0759.
ATATCATA was tested, and the binding signal (normalized occupancy) was 0.0893.
With GGCCAGAC the binding signal (normalized occupancy) was 0.0701.
Sequence ACACGTGT has a binding signal (normalized occupancy) of 0.545.
With CTCGTTTA the binding signal (normalized occupancy) was 0.0741.
Sequence ATATATCA has a binding signal (normalized occupancy) of 0.0877.
Sequence CGTTGCAA has a binding signal (normalized occupancy) of 0.0707.
ACCCGTTC gave a binding signal (normalized occupancy) of 0.0827.
For CAGGAGCA, the binding signal (normalized occupancy) was 0.0687.
Sequence GGCACACC has a binding signal (normalized occupancy) of 0.0779.
For AAATGGCG, the binding signal (normalized occupancy) was 0.0746.
With GCTCAGAC the binding signal (normalized occupancy) was 0.0703.
In the case of GGTAGACC, the binding signal (normalized occupancy) is reported as 0.0727.
In the case of TAAGTTCA, the binding signal (normalized occupancy) is reported as 0.0774.
CAAGGCGC gave a binding signal (normalized occupancy) of 0.0709.
In the case of GGCTGGTA, the binding signal (normalized occupancy) is reported as 0.073.
GGGTAACC was tested, and the binding signal (normalized occupancy) was 0.0704.
GGTCAAGA was tested, and the binding signal (normalized occupancy) was 0.0783.
CACCCCAC showed a binding signal (normalized occupancy) of 0.0934.
In the case of CAATCCGC, the binding signal (normalized occupancy) is reported as 0.0713.
Work on ATCCTGAG yielded a binding signal (normalized occupancy) of 0.0762.
Sequence AACGGTGA has a binding signal (normalized occupancy) of 0.0739.
GTCCGCAA showed a binding signal (normalized occupancy) of 0.0768.
AACGGGGG was tested, and the binding signal (normalized occupancy) was 0.0767.
AAAAACGT gave a binding signal (normalized occupancy) of 0.0736.
For ATTAGAAG, the binding signal (normalized occupancy) was 0.0762.
Sequence ATTGACCG has a binding signal (normalized occupancy) of 0.0761.
With TGCCTCCA the binding signal (normalized occupancy) was 0.08.
Work on AATCCGAT yielded a binding signal (normalized occupancy) of 0.0764.
CCTTGCCC gave a binding signal (normalized occupancy) of 0.0729.
